Data as given in PubChem BioAssay AID1345083 (National Center for Advancing Translational Sciences (NCATS), 2018).
Several values for one entry are separate records, joined by “and”; a condition that tells them apart may be missing. Equal entries are not always repeated. In all, about 94,000 compounds went through this assay and about 6,200 (6.6%) were called active. This list was built around the results that the source calls inconclusive (neither active nor inactive); the mix of calls is not that of the screen. Calls follow the shape of the dose curve; as a rule, active = well fitted inhibition curve with a large enough effect; inconclusive = small, poorly fitted or top-dose-only effect; inactive = flat fitted curve, though single readings scatter. Potencies beside an inconclusive call are fits to weak or partial responses and may not hold up.

assay: Cytotoxic Profiling in HEK 293 Cell Line of Diverse Libraries Using Quantitative High-Throughput Screening; conditions: HEK 293 viability, ATP luminescence (CellTiter-Glo), 48-72 h; series mostly up to 115 µM; also: nearly all actives have a fitted effect of over 60% in size
How it was run: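 ATP-coupled CellTiter-Glo luminescence served as viability read-out, recorded 10 min after reagent addition at room temperature. HEK 293 cells, 250 cells/well, had been incubated with pintool-transferred compound for 48 or 72 hr at 37 degree Celsius.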
Potency is read from the fitted curve at half-maximal effect; tags tell the direction and shape of the fitted curve.

Structure (SMILES) | Potency
CCOCCCNC(=O)N1CC(Oc2ccc(-c3nc(-c4ccccc4)no3)cc2)C1 | inconclusive: 2.82 µM [inhibitor, full curve, poor fit]
COc1ccc(-n2c(=O)c(C(=O)NCc3ccc(C(F)(F)F)cc3)nc3cccnc32)cc1 | inconclusive: 89.1 µM [inhibitor, single point]
O=S(=O)(N[C@H]1[C@H](O)[C@H](O)C[C@@H]1c1ccc(C(F)(F)F)nc1)c1ccc(Cl)cc1 | inactive
Cc1cn2nc(C(=O)N3CCN(c4ccccn4)CC3)cc2c(N2CCCC2)n1 | inconclusive: 50.1 µM [inhibitor, partial curve, poor fit]
Cc1csc2c(NCCC3CN(c4cnn(C)c(=O)c4)CCO3)ncnc12 (stereo not drawn) | inconclusive: 39.8 µM [inhibitor, partial curve, poor fit]
COc1ccc(CC(=O)NC2CCN(c3ccc4nnc(C5CC5)n4n3)CC2)cc1 | inactive
O=C(O)CCn1ncc2cc(OC3CCN(C(=O)COc4ccccc4)CC3)ccc21 | inactive
C[C@H]1CCCN1C(=O)c1nnc(COc2cccc(C(F)(F)F)c2)n1-c1cccnc1 | inconclusive: 100 µM [inhibitor, partial curve, poor fit]
Clc1ccccc1C1(c2ccnc(NCc3ccccc3)n2)CCNCC1 | inconclusive: 22.4 µM [inhibitor, full curve, poor fit]
Cc1cc(CN2CCC3(CC2)CN(C2CCC2)CC3CO)n(C)n1 (stereo not drawn) | inconclusive: 89.1 µM [inhibitor, single point]
CC(C)c1ccc(Nc2n[nH]c(C(O)c3ccccc3)n2)cc1 (stereo not drawn) | inconclusive: 89.1 µM [inhibitor, partial curve, poor fit]
O=c1n(-c2ccc(Cl)cc2)nc2n1CCN(CC1CCCCC1)C2 | inconclusive: 112 µM [inhibitor, single point]
Cc1ccc(Nc2ccnc(N3CCCC3C(=O)NC3CC3)n2)cc1 (stereo not drawn) | inconclusive: 89.1 µM [inhibitor, single point]
CCCN(CC1CC1)C(=O)c1coc(COc2ccc3sc(C)nc3c2)n1 | active: 39.8 µM
O=C1NCC2(CCN(Cc3ccc(C(F)(F)F)cc3)CC2)Oc2ccccc21 | inconclusive: 89.1 µM [inhibitor, partial curve, poor fit]
O=C(Nc1cccc(C(F)(F)F)c1)O[C@@H]1CO[C@H]2[C@@H]1OC[C@@H]2NC(=S)Nc1ccc(Cl)cc1 | active: 44.7 µM
O=C(c1ccccn1)C1CCCN(C(=O)c2cnc(-c3cccnc3)nc2)C1 (stereo not drawn) | inactive
COCCN[C@@H]1C[C@@H]2c3[nH]c4ccccc4c3C[C@@H](C(=O)OC)N2[C@H](c2cccc(OC)c2)C1 | active: 22.4 µM
COc1ccccc1-c1[nH]nc2ncc(-c3cccnc3OC)nc12 | active: 10 µM
O=C(NCCC1CCN(C(=O)Nc2cc(F)cc(F)c2)CC1)c1ccccc1 | inconclusive: 100 µM [inhibitor, single point]
CCOc1ccccc1NC(=O)N1CCCN(C)c2ccccc21 | inconclusive: 17.8 µM [inhibitor, partial curve, poor fit]

Structure (SMILES) | Potency
CC(C)C(=O)N1CCC(CCOc2ccccc2F)C1 (stereo not drawn) | inconclusive: 35.5 µM [inhibitor, partial curve]
CC(=O)N1CCN(C(=O)c2cn3cc(-c4ccc(C)cc4)sc3n2)CC1 | inconclusive: 50.1 µM [inhibitor, partial curve, poor fit]
COc1ccc(CCCN2C(=O)O[C@@H]3CN(C4CCOCC4)C[C@@H]32)cc1 | inactive
COc1cc2c(cc1OC)C(CNC(=O)c1cccs1)N(C(=O)Nc1ccccc1)CC2 (stereo not drawn) | inconclusive: 79.4 µM [inhibitor, partial curve]
Cc1nn(-c2ccccc2)c2c1C(C)N(C1CN(C(=O)C3CCCC3)C1)C2=O (stereo not drawn) | inconclusive: 79.4 µM [inhibitor, partial curve, poor fit]
Cc1cn2nc(C(=O)NCCCc3ccccc3)cc2c(=O)[nH]1 | inactive
O=C(c1ccc(Cl)cc1)N1CCC(n2cc(-c3nc(-c4ccccc4)no3)nn2)CC1 | inconclusive: 31.6 µM [inhibitor, partial curve, poor fit]
C[C@H]1[C@@H]2[C@@H](O)C([C@H](C)C(=O)N3CCCC3)CC[C@@]2(C)CC[C@@H]1NC(=O)COc1ccccc1 (stereo partly drawn) | inactive
O=C(Nc1cnc(-c2cccc(Cl)c2)nc1)c1ccsc1 | inactive
Cc1ccsc1CN1CCCN(S(C)(=O)=O)C(c2ccccc2)CC(=O)NCC1 (stereo not drawn) | inactive
FC(F)(F)c1cccc(C2=NOC3(CCN(Cc4ccncc4)CC3)C2)c1 | inconclusive: 39.8 µM [inhibitor, partial curve, poor fit]
CCc1nc2c(=O)n(CC(=O)N3CCN(c4cccc(C)c4C)CC3)nc(C)c2s1 | inconclusive: 70.8 µM [inhibitor, single point]
CC(=O)N1CCC(C(=O)Nc2nc3c(s2)C[C@]2(C)CC[C@@H]4[C@H](OC(=O)[C@H]4C)[C@H]2[C@@H]3C)CC1 | inconclusive: 63.1 µM [inhibitor, partial curve, poor fit]
COCCNC(=O)[C@H]1C[C@H](Oc2ccccc2)CN1Cc1cccc(C)c1 | active: 12.6 µM
COc1cccc(C(=O)N2CCC(N3C(=O)c4c(c(C)nn4-c4ccccc4)C3C)CC2)c1 (stereo not drawn) | active: 39.8 µM
COc1ccc(-c2nc(C(C)C)nc3c2CN([S+](=O)([O-])c2cccs2)CC3)cc1 | inactive
Cc1cc(=O)n(CC(=O)Nc2ccccc2C)c(-c2ccc(F)cc2)n1 | inconclusive: 25.1 µM [inhibitor, full curve]
CC(C)(Oc1nn(Cc2cccc(Cl)c2)c2ccccc12)C(=O)N1CCN(CCO)CC1 | inconclusive: 50.1 µM [inhibitor, partial curve, poor fit]
CC(C)C(=O)N1CCC2(CCNC(=O)CC2)CC1 | inactive
CCN1C(=O)CCC2(C(=O)NCCN3CCOCC3)CCCC=C12 (stereo not drawn) | inactive
Cc1ccc(C(=O)N2CCC3(CC2)NC(=O)N(c2ccccc2Cl)N3)c(C)c1 | inconclusive: 50.1 µM [inhibitor, partial curve, poor fit]

Structure (SMILES) | Potency
O=C(c1ccc(C(F)(F)F)cc1)N1CCc2nc(C3CC3)nc(-c3ccc(Cl)cc3)c2C1 | inconclusive: 89.1 µM [inhibitor, single point]
Clc1ccc(C2Cn3nnc(-c4nc(C5CC5)no4)c3CO2)cc1 (stereo not drawn) | inconclusive: 50.1 µM [inhibitor, partial curve, poor fit]
CNC(=O)CCn1ncc2cc(OCc3ccccc3-c3cncc(OC)c3)ccc21 | active: 79.4 µM
COc1ccnc(-c2nnc3ccc(N4C[C@@H](C)O[C@@H](C)C4)nn23)c1 | inconclusive: 112 µM [inhibitor, partial curve, poor fit]
Cn1nccc1C(=O)N1CCC2(CC1)CC(N(Cc1ccccc1)C1CC1)CCO2 (stereo not drawn) | inconclusive: 22.4 µM [inhibitor, full curve]
CCC(C)NC(=O)N1CCC2(CC1)CN(Cc1ccc(OC)cc1)C2=O (stereo not drawn) | inactive
O=C1Nc2ccccc2CC12CCN2Cc1ccc(C(F)(F)F)cc1 (stereo not drawn) | inconclusive: 89.1 µM [inhibitor, partial curve, poor fit]
COc1ccc(C(=O)N2C[C@@H](CO)[C@H](NC(=O)c3ccccc3)C2)c(OC)c1 | inconclusive: 100 µM [inhibitor, single point]
CCNC(=O)N1CCCCCCNC(=O)[C@@H]2C[C@@H](c3nc(Cc4ccccc4)no3)C[C@@H]21 | inactive
COc1c(C)cc(NC(=O)c2ccc(CN3CCC(O)CC3)cc2)cc1C | inconclusive: 44.7 µM [inhibitor, partial curve]
O=C(NCCc1ccc(Cl)cc1)c1ccc2nccn2c1 | inconclusive: 100 µM [inhibitor, partial curve] and inconclusive: 100 µM [inhibitor, partial curve, poor fit]
CC(=O)Nc1cccc(-c2csc(CN3CCCC(C)(NC(C)=O)C3)c2)c1 (stereo not drawn) | inconclusive: 100 µM [inhibitor, partial curve, poor fit]
COc1cc(OC)cc(C(=O)NCC2CCCN(C/C=C/c3ccccc3OC)C2)c1 (stereo not drawn) | inconclusive: 50.1 µM [inhibitor, partial curve, poor fit]
COc1ccc([C@H]2C[C@@H](O)[C@@H](O)[C@@H]2NCc2cnc3ccccc3c2)cc1 | inactive
CCCc1noc(-c2cccn3c(CNC(=O)COc4cccc(C)c4)nnc23)n1 | inactive
O=C(NCc1ccc(Cl)cc1)C1CCN(c2ccnc3ccnn23)CC1 | inconclusive: 25.1 µM [inhibitor, partial curve]
COc1ccccc1N1CCN(C(=O)CCc2conc2-c2cccc(F)c2)CC1 | inconclusive: 50.1 µM [inhibitor, partial curve, poor fit]
CCc1ccc(S(=O)(=O)N2CCCC(Cn3cnc4cccnc43)C2)cc1 (stereo not drawn) | inconclusive: 50.1 µM [inhibitor, partial curve, poor fit]
Cc1ccc(C2Cn3nnc(C(=O)N4CCN(C(=O)c5ccsc5)CC4)c3CO2)cc1 (stereo not drawn) | inconclusive: 89.1 µM [inhibitor, single point]
Cc1nn(-c2ccc(F)cc2)c(Oc2cccc(F)c2)c1CCC(=O)NC(C)C | inconclusive: 79.4 µM [inhibitor, partial curve]
COCCCNC(=O)C1(C)CN(Cc2ccccc2)Cc2ccc(NCC(C)C)nc21 (stereo not drawn) | active: 89.1 µM
